The campaign covered roughly 310,000 compounds. About 14,000 (4.5%) showed an effect of 50% or more. The effect is printed as a negative number. The list shows a part of the results.
The compounds below were run against human ether-à-go-go-related gene (hERG) potassium channel (human, UniProt Q12809) (assay: primary screen, population patch clamp on CHO cells stably expressing hERG).
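Note: peak tail current of the secondary pulse compared with the same well before compound.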

Chain of human ether-à-go-go-related gene (hERG) potassium channel (Q12809 whole entry, looked up): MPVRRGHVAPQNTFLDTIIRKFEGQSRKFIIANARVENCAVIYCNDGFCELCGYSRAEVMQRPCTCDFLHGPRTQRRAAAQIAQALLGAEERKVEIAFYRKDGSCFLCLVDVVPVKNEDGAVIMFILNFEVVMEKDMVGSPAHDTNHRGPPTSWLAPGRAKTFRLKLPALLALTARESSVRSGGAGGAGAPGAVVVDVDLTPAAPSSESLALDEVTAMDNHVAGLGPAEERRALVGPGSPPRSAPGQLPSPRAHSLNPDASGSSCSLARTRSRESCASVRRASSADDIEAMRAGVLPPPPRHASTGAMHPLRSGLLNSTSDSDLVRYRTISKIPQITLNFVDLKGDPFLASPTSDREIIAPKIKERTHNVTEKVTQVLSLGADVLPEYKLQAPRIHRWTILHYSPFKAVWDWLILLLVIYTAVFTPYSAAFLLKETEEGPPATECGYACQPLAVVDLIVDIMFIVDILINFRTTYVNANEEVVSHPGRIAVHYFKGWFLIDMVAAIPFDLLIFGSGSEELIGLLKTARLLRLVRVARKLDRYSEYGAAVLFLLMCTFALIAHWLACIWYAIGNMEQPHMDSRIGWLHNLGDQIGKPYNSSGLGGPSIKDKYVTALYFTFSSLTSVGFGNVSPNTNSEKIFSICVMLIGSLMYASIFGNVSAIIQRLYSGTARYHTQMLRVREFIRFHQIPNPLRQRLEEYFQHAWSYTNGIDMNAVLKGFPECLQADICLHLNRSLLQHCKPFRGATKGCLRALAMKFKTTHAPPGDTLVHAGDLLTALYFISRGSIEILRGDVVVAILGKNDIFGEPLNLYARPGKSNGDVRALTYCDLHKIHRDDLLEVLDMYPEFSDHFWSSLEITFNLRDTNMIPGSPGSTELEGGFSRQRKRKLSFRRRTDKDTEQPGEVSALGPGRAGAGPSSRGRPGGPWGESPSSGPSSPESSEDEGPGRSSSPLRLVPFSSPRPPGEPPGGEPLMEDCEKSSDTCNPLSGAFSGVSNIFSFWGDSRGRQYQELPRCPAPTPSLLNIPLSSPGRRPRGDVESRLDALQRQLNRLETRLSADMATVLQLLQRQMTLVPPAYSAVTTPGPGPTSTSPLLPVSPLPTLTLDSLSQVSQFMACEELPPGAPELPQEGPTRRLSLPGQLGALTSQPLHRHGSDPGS

| Structure (SMILES) | hERG current change (%, negative = inhibition) at 10uM [%] |
| --- | --- |
| COc1ccc(CNC(=O)C2CCCC2)cc1 | 9.34 |
| COc1ccc(Cc2nc3ccc(C(=O)NCc4cc(C)no4)cc3o2)cc1OC | -3.66 |
| COc1cccc(CC(=O)Nc2cc(S(=O)(=O)N3CCOCC3)ccc2N2CCOCC2)c1 | -9.41 |
| CCOCc1c(C(=O)OCC(=O)/C(C#N)=C(\C)N)oc2ccccc12 | 13.6 |
| CCN(CC)CCCNC(=O)Cn1ccc2ccccc2c1=O | 29.8 |
| Cc1n[nH]c(=O)c2c1nnn2Cc1ccc(F)cc1 | 4.2 |
| O=C1NCCCC1C(=O)N1CCN(C(=O)c2ccco2)CC1 (stereo not drawn) | 1.03 |
| Cc1cnc(NC(=O)c2sc(Nc3ccccc3)nc2N)o1 | 16.6 |
| CCN(CCCn1c(=S)[nH]c2ccc(N3CCOCC3)cc2c1=O)c1ccccc1 | 5.99 |
| O=C(COC(=O)c1cc[n+]([O-])cc1)NCCc1ccc(Cl)cc1Cl | 53.4 |
| CCCCCN(C(=O)CCC(=O)OCc1cccc(Br)c1)c1c(N)n(CCCC)c(=O)[nH]c1=O | -13.4 |
| COc1cccc(C2CC(C(F)(F)F)n3ncc(C(=O)NCc4ccco4)c3N2)c1 (stereo not drawn) | -29.9 |
| Cc1ccc(C)c(N2CCN(C(=O)CCS(=O)(=O)c3ccc4c(c3)NC(=O)C(C)S4)CC2)c1 (stereo not drawn) | 21.1 |
| CCOc1cc(NC(=S)NCc2ccco2)c(OCC)cc1NC(C)=O | -3.02 |
| CCOCCC(=O)Nc1nnc(CCc2ccccc2)s1 | -7.42 |
| O=C(c1ccccc1CCc1ccccc1)N1CCN(c2ccccn2)CC1 | -37.7 |
| COc1ccc(N2CCN(C(=O)CNC(=O)c3cccc(Br)c3)CC2)cc1 | -0.254 |
| COc1cccc(OC)c1-c1nnc(-c2cn(C)c3ccccc23)o1 | 10.7 |
| O=C(O)C(=O)O.c1ccc(COc2ccc(OCCCCN3CCCC3)cc2)cc1 | -64 |

| Structure (SMILES) | hERG current change (%, negative = inhibition) at 10uM [%] |
| --- | --- |
| C[C@H](O)CC(=O)O | 6.58 |
| CC(NC(=O)Nc1ccc(Cl)c(Cl)c1)C(c1ccccc1)N1CCOCC1 (stereo not drawn) | -24.5 |
| Cc1cc(C)c(C(=O)CSc2nnc(-c3cccnc3)n2C)c(C)c1 | -22.4 |
| O=C(OCCCc1cc2ccccc2c(=O)o1)c1ccccc1C(F)(F)F | 1.58 |
| CCOc1cccc(CNCCSc2nnnn2C)c1.Cl | 9.44 |
| COCCNC(=O)C(c1ccc(F)cc1)N(Cc1ccco1)C(=O)CCC(=O)Nc1ccccn1 (stereo not drawn) | -0.852 |
| CCOc1ccc(CCNC(=O)CN2C(=O)COc3ccc(S(=O)(=O)N4CCOCC4)cc32)cc1 | -6.84 |
| COC(=O)C1C(=O)C2=C(CC1C)NC(C)=C(C(=O)OCc1ccc(OC)cc1)C2c1ccc(C)o1 (stereo not drawn) | -5.1 |
| COc1cccc(-c2nc(CS(=O)(=O)CC(=O)NCCc3ccccc3)c(C)o2)c1 | 0.232 |
| Nc1ccc2c(c1)COc1ccccc1O2 | -8.58 |
| O=C1C(=O)c2ccccc2C(O)=C1c1ccccc1F | 14.1 |
| O=C(Nc1nccs1)c1ccc(-c2ccc(Cl)cc2Cl)o1 | 25.5 |
| CCN1CCN(C(=O)Nc2ccc(Cc3ccc(NC(=O)N4CCN(CC)CC4)cc3)cc2)CC1 | 6.12 |
| CCOc1cc(C(=O)NCCN2CCOCC2)cc(OCC)c1OCC | -7.99 |
| CC(NC(=O)Cc1ccccc1)C(=O)O (stereo not drawn) | 11.4 |
| CC(=O)c1cnc(Nc2nc(C)c3ccccc3n2)nc1C | 17.3 |
| COc1cc(OC)nc(Oc2ccccc2C(=O)Oc2ccc(F)cc2Cl)n1 | 4.67 |
| Cc1ccc(C(=O)Nc2cc(Cl)ccc2OC(=O)c2ccc(C)cc2)cc1 | 11.6 |
| CCOC(=O)C1=C(Nc2ccccc2)OCC1=O | 10.9 |

| Structure (SMILES) | hERG current change (%, negative = inhibition) at 10uM [%] |
| --- | --- |
| CCC(C(=O)OCC(=O)c1ccc2c(c1)NC(=O)CO2)c1ccccc1 (stereo not drawn) | -17.5 |
| Cc1cc(C)c(C(=O)C(C)OC(=O)Cn2cnc3c2c(=O)n(C)c(=O)n3C)cc1C (stereo not drawn) | -17.6 |
| CCN(CC)S(=O)(=O)c1ccc(C)c(NC(=O)COc2ccc(Br)cc2Cl)c1 | -2.71 |
| CC(C)Nc1nc2c(c(=O)n(C)c(=O)n2C)n1C | -13.9 |
| Cc1cc(C)nc(N2Cc3ccccc3C2=N)n1 | -56 |
| CCOC(=O)c1c(C)[nH]c(=S)c(C#N)c1-c1ccc(Cl)cc1 | 20.7 |
| Cn1ccnc1SCCC#N | -7.16 |
| O=C1NC(=O)/C(=C\c2ccc(OCc3cccc(C(=O)O)c3)c(Cl)c2)N1 | 20.1 |
| COc1cc(OC)cc(C(=O)N[C@H](C(=O)NCc2ccco2)C(C)C)c1 | 4.29 |
| O=C(O)C1C2CCC(C2)C1C(=O)NCCCn1ccnc1 (stereo not drawn) | -3.05 |
| C=C(C)c1cccc(C(C)(C)NC(=O)NCc2ccc(OC)c(OC)c2)c1 | 5.84 |
| Cc1cc(NC(=O)c2cc(-c3cccs3)on2)nn1Cc1ccc(Cl)cc1 | -6.49 |
| Cc1nc2sc(C(c3ccco3)N3CCC(Cc4ccccc4)CC3)c(O)n2n1 (stereo not drawn) | -37.7 |
| Cc1noc(NS(=O)(=O)c2ccc(NC(=O)c3cnc4scc(C)n4c3=O)cc2)c1C | 7 |
| COc1cc(CCC(=O)Nc2cccc(S(=O)(=O)N(C)C)c2)cc(OC)c1OC | -12.4 |
| Cc1ccc(S(=O)(=O)N(C)CC(=O)Nc2ncccc2C)cc1 | 5.96 |
| CCC(C)(C)n1nnnc1C(c1ccc2ncccc2c1)N1CCN2CCCC2C1 (stereo not drawn) | -10.8 |
| Cc1ccc(C(=O)C(C)N2C(=O)NC(C)(c3ccccc3)C2=O)cc1 (stereo not drawn) | -4.13 |
| O=C(O)c1cc2nc(-c3ccc(F)cc3)cc(C(F)(F)F)n2n1 | 4 |
